# Some of the results follow.
# B1: Tap1 (Sordaria macrospora), Q50IV4 (protein)
# chain: MSHHHHHHHHYTLHLRLINDTSDTLTLVEQTSWWGKNTIWSQVRSTGVHVLSMAASGSSGMLRFQTSKGDFFAVAVGVHNYKRWCDVLVDTADEAPLTKLHPKYYDDKDAKYQALWAQASEFEAKSKSGKTVRIKFYQADGNVLRATVEYL
# How the values were obtained:
# Experiment in all cases: glycan array binding signal (z-score within array); higher = stronger binding
# Settings in all cases: glycan notation: IUPAC condensed, linker removed
# [1] = molecular target: Gal(b1-4)GlcNAc(b1-6)[Gal(b1-3)]GalNAc
# How it was run: (§1)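 From the Consortium for Functional Glycomics database, 3228 arrays were curated, keeping only those whose protein sequence was available. Binding is given as a within-array Z-score averaged across arrays sharing a protein sequence and across linkers. Negative Z-scores can be read as non-binding.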
# Gal(b1-6)Gal = molecular target: Gal(b1-6)Gal
# How it was run: as §1
# Gal3S(b1-3)GalNAc = molecular target: Gal3S(b1-3)GalNAc
# How it was run: as §1
# Gal3S(b1-3)GlcNAc = molecular target: Gal3S(b1-3)GlcNAc
# How it was run: as §1
# [2] = molecular target: Gal3S(b1-3)[Fuc(a1-4)]GlcNAc
# How it was run: as §1
# Gal3S(b1-4)Glc = molecular target: Gal3S(b1-4)Glc
# How it was run: as §1
# Gal3S(b1-4)Glc6S = molecular target: Gal3S(b1-4)Glc6S
# How it was run: as §1
# Gal3S(b1-4)GlcNAc = molecular target: Gal3S(b1-4)GlcNAc
# How it was run: as §1
# Gal3S(b1-4)GlcNAc6S = molecular target: Gal3S(b1-4)GlcNAc6S
# How it was run: as §1
# [3] = molecular target: Gal3S(b1-4)[Fuc(a1-3)]Glc
# How it was run: as §1
# [4] = molecular target: Gal3S(b1-4)[Fuc(a1-3)]Glc6S
# How it was run: as §1
# Gal3S4S(b1-4)GlcNAc = molecular target: Gal3S4S(b1-4)GlcNAc
# How it was run: as §1
# Gal3S6S(b1-4)GlcNAc = molecular target: Gal3S6S(b1-4)GlcNAc
# How it was run: as §1
# Gal3S6S(b1-4)GlcNAc6S = molecular target: Gal3S6S(b1-4)GlcNAc6S
# How it was run: as §1
# Gal4S(b1-4)GlcNAc = molecular target: Gal4S(b1-4)GlcNAc
# How it was run: as §1
# Gal4S6S(b1-4)GlcNAc = molecular target: Gal4S6S(b1-4)GlcNAc
# How it was run: as §1
# Gal6S(b1-3)GlcNAc = molecular target: Gal6S(b1-3)GlcNAc
# How it was run: as §1
# Gal6S(b1-3)GlcNAc6S = molecular target: Gal6S(b1-3)GlcNAc6S
# How it was run: as §1
# Gal6S(b1-4)Glc = molecular target: Gal6S(b1-4)Glc
# How it was run: as §1
# Gal6S(b1-4)Glc6S = molecular target: Gal6S(b1-4)Glc6S
# How it was run: as §1
# Gal6S(b1-4)GlcNAc = molecular target: Gal6S(b1-4)GlcNAc
# How it was run: as §1
# Gal6S(b1-4)GlcNAc6S = molecular target: Gal6S(b1-4)GlcNAc6S
# How it was run: as §1
# GalNAc(a1-3)Gal = molecular target: GalNAc(a1-3)Gal
# How it was run: as §1
# GalNAc(a1-3)GalNAc = molecular target: GalNAc(a1-3)GalNAc
# How it was run: as §1
# [5] = molecular target: GalNAc(a1-3)GalNAc(a1-3)Gal(a1-4)Gal(b1-4)GlcNAc
# How it was run: as §1
# [6] = molecular target: GalNAc(a1-3)GalNAc(b1-3)Gal(a1-4)Gal(b1-4)Glc
# How it was run: as §1
# GalNAc(b1-3)Gal = molecular target: GalNAc(b1-3)Gal
# How it was run: as §1
# [7] = molecular target: GalNAc(b1-3)Gal(a1-4)Gal(b1-4)GlcNAc
# How it was run: as §1
# [8] = molecular target: GalNAc(b1-3)Gal(a1-4)Gal(b1-4)GlcNAc(b1-3)Gal(b1-4)Glc
# How it was run: as §1
# [9] = molecular target: GalNAc(b1-3)Gal(a1-6)Gal(b1-4)Glc
# How it was run: as §1
# GalNAc(b1-3)GalNAc = molecular target: GalNAc(b1-3)GalNAc
# How it was run: as §1
# GalNAc(b1-4)GlcNAc = molecular target: GalNAc(b1-4)GlcNAc
# How it was run: as §1
# [10] = molecular target: GalNAc(b1-4)GlcNAc(b1-2)Man(a1-3)[GalNAc(b1-4)GlcNAc(b1-2)Man(a1-6)]Man(b1-4)GlcNAc(b1-4)GlcNAc
# How it was run: as §1
# GalNAc(b1-6)GalNAc = molecular target: GalNAc(b1-6)GalNAc
# How it was run: as §1
# Glc(a1-4)Glc = molecular target: Glc(a1-4)Glc
# How it was run: as §1
# Glc(a1-6)Glc(a1-6)Glc = molecular target: Glc(a1-6)Glc(a1-6)Glc
# How it was run: as §1
# Glc(b1-4)Glc = molecular target: Glc(b1-4)Glc
# How it was run: as §1
# Glc(b1-6)Glc = molecular target: Glc(b1-6)Glc
# How it was run: as §1
# GlcA(b1-3)Gal = molecular target: GlcA(b1-3)Gal
# How it was run: as §1
# GlcA(b1-3)GlcNAc = molecular target: GlcA(b1-3)GlcNAc
# How it was run: as §1
# GlcA(b1-6)Gal = molecular target: GlcA(b1-6)Gal
# How it was run: as §1
# [11] = molecular target: GlcNAc(a1-3)Gal(b1-4)GlcNAc
# How it was run: as §1
# [12] = molecular target: GlcNAc(a1-4)Gal(b1-3)GlcNAc
# How it was run: as §1
# [13] = molecular target: GlcNAc(a1-4)Gal(b1-4)GalNAc
# How it was run: as §1
# [14] = molecular target: GlcNAc(a1-4)Gal(b1-4)GlcNAc
# How it was run: as §1
binder,measurement,setting,value
B1,glycan array binding signal (z-score),[1],1.08
same,glycan array binding signal (z-score),Gal(b1-6)Gal,-0.203
same,glycan array binding signal (z-score),Gal3S(b1-3)GalNAc,5.01
same,glycan array binding signal (z-score),Gal3S(b1-3)GlcNAc,-0.096
same,glycan array binding signal (z-score),[2],-0.246
same,glycan array binding signal (z-score),Gal3S(b1-4)Glc,-0.222
same,glycan array binding signal (z-score),Gal3S(b1-4)Glc6S,-0.208
same,glycan array binding signal (z-score),Gal3S(b1-4)GlcNAc,-0.214
same,glycan array binding signal (z-score),Gal3S(b1-4)GlcNAc6S,-0.208
same,glycan array binding signal (z-score),[3],-0.195
same,glycan array binding signal (z-score),[4],-0.18
same,glycan array binding signal (z-score),Gal3S4S(b1-4)GlcNAc,-0.217
same,glycan array binding signal (z-score),Gal3S6S(b1-4)GlcNAc,-0.232
same,glycan array binding signal (z-score),Gal3S6S(b1-4)GlcNAc6S,-0.22
same,glycan array binding signal (z-score),Gal4S(b1-4)GlcNAc,-0.232
same,glycan array binding signal (z-score),Gal4S6S(b1-4)GlcNAc,-0.195
same,glycan array binding signal (z-score),Gal6S(b1-3)GlcNAc,-0.245
same,glycan array binding signal (z-score),Gal6S(b1-3)GlcNAc6S,-0.24
same,glycan array binding signal (z-score),Gal6S(b1-4)Glc,-0.176
same,glycan array binding signal (z-score),Gal6S(b1-4)Glc6S,-0.197
same,glycan array binding signal (z-score),Gal6S(b1-4)GlcNAc,-0.236
same,glycan array binding signal (z-score),Gal6S(b1-4)GlcNAc6S,-0.221
same,glycan array binding signal (z-score),GalNAc(a1-3)Gal,-0.246
same,glycan array binding signal (z-score),GalNAc(a1-3)GalNAc,-0.223
same,glycan array binding signal (z-score),[5],-0.247
same,glycan array binding signal (z-score),[6],-0.202
same,glycan array binding signal (z-score),GalNAc(b1-3)Gal,-0.23
same,glycan array binding signal (z-score),[7],-0.244
same,glycan array binding signal (z-score),[8],-0.22
same,glycan array binding signal (z-score),[9],-0.168
same,glycan array binding signal (z-score),GalNAc(b1-3)GalNAc,1.16
same,glycan array binding signal (z-score),GalNAc(b1-4)GlcNAc,-0.246
same,glycan array binding signal (z-score),[10],-0.225
same,glycan array binding signal (z-score),GalNAc(b1-6)GalNAc,-0.242
same,glycan array binding signal (z-score),Glc(a1-4)Glc,-0.233
same,glycan array binding signal (z-score),Glc(a1-6)Glc(a1-6)Glc,-0.242
same,glycan array binding signal (z-score),Glc(b1-4)Glc,-0.205
same,glycan array binding signal (z-score),Glc(b1-6)Glc,-0.23
same,glycan array binding signal (z-score),GlcA(b1-3)Gal,-0.223
same,glycan array binding signal (z-score),GlcA(b1-3)GlcNAc,1.82
same,glycan array binding signal (z-score),GlcA(b1-6)Gal,-0.247
same,glycan array binding signal (z-score),[11],-0.235
same,glycan array binding signal (z-score),[12],-0.234
same,glycan array binding signal (z-score),[13],0.868
same,glycan array binding signal (z-score),[14],-0.017

# — the supplement of paper PMC8728848
